# From PubChem BioAssay (NCATS)
# Some of the results follow. The main result of the screen is listed elsewhere. These columns were measured beside it and carry no call. For some of these results: Most of these compounds were active or inconclusive in the main read-out, so they are no random draw. For some of these results: Words in brackets tell the shape of the fitted curve; partial curves, single points and poor fits give uncertain potencies. Square brackets hold non-standard residues; d marks the D form. Peptide text beside a SMILES is read from it. Orn = NCCC[CH](N)C(=O)O
# How the values were obtained:
# [1] = qHTS Assay for Lipid Storage Modulators (AID 1519); conditions: Drosophila S3 cells, BODIPY lipid droplet/cell ratio, laser cytometry, cells loaded with oleic acid
# Summary of the method: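 Cells seeded at 5,000 per well were treated with compounds over a concentration series and loaded with oleic acid (400 uM, as added). Lipid droplet fluorescence (488 nm excitation, 500-530 nm channel) was read by laser-scanning cytometry and normalized to 20 uM Triacsin C.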
# [2] = qHTS assay for small molecule antagonists of androgen receptor signaling (AID 588516); conditions: AR-UAS-bla HEK293, beta-lactamase ratio, antagonist mode, 16 h; measured here: W460 blue channel fit
# Summary of the method: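 Antagonist-mode qHTS: inhibition of R1881 (10 nM)-driven beta-lactamase expression in GripTite HEK 293 cells is measured after 16 h; values are Hill-derived IC50s normalized between R1881 and DMSO wells.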
# [3] = A High-Content qHTS Against Drug Library for the Identification of Small Molecules that Inhibit DYT1 Early Onset Primary Dystonia-Associated Cell Pathology (AID 1645839); conditions: HEK293 Flp-In EGFP-delE TorsinA, punctate imaging, 48 h; measured here: cell count cytotoxicity
# Summary of the method: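 Readout: %pathology, the punctate EGFP-TorsinA distribution from imaging, as the primary channel and cell count as the toxicity counterscreen. HEK293 Flp-In cells expressing delE TorsinA were induced with tetracycline and treated with compound for 48 h.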
# [4] = S16 Schwann cell PMP22 intronic element beta-lactamase assay (AID 624044); conditions: S16 rat Schwann cells, PMP22 element beta-lactamase FRET, 24 h; note: nearly all actives have a fitted effect of over 15% in size
# Summary of the method: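 Rat S16 Schwann cells with beta-Lac driven by a PMP22 intronic element, compound-treated 24 h at 37 °C. LiveBLAzer FRET B/G read: 460 nm normalized to potassium clavulanate vs DMSO; 535 nm FRET as viability; concentration-effect curves classified.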
# [5] = NCATS anti-infectives library activity on the primary C. elegans qHTS viability assay (AID 1745855); conditions: C. elegans worm area imaging, day 7; measured here: worm number, day 3
# Summary of the method: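 Viability is taken from GFP fluorescence of PE254-GFP-FLuc C. elegans imaged by laser cytometry over 7 days. Ten L1 worms per well grow at 21 °C on TOP10 E. coli capsules with titrated compound; levamisole marks toxicity.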
# [6] = qHTS drug screen for cell cycle checkpoint inhibitors in PARPi-resistant BRCA-mutant ovarian cancer cell lines. (AID 1963452); conditions: PEO1/OlaR viability, CellTiter-Glo luminescence, 96 h
# Summary of the method: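 PEO1, PEO4 and PEO1/OlaR ovarian cancer cells, 600 per well, exposed 96 h at 37C to a dilution series. Viability read by CellTiter-Glo luminescence, normalized to DMSO and empty wells; activity summarized as Z-AUC.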
# [7] = qHTS assay for small molecule antagonists of peroxisome proliferator-activated receptor delta signaling (AID 588535); conditions: HEK293T PPARd-UAS-bla, beta-lactamase FRET ratio, 18 h; 460 nm channel;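 note: cells co-treated with a PPAR-delta agonist as stimulator during compound exposure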
# Summary of the method: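 GeneBLAzer PPAR-delta-UAS-bla HEK293T cells in medium with 2% charcoal/dextran FBS were preincubated 5 hrs at 37 C, then given compounds, incubated 18 hrs at 37 C, and read by CCF4 beta-lactamase fluorescence; IC50 from Hill fits.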
# [8] = qHTS assay for small molecule antagonists of peroxisome proliferator-activated receptor gamma signaling (AID 588537); conditions: HEK293 PPARg-UAS-bla, beta-lactamase ratio, antagonist mode; measured here: W460 blue channel
# Summary of the method: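 PPAR-gamma-UAS-bla HEK293 cells (3000/well, 1% charcoal/dextran-stripped FBS) were preincubated 6-6.5 h at 37 C, given titrated compounds, then stimulated with 50 nM rosiglitazone for 16 h. Beta-lactamase activity was read with CCF4 dye; IC50 came from Hill fits.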
# [9] = qHTS assay for small molecule agonists of retinoid X receptor alpha signaling (AID 588544); conditions: HEK293T RXRa-UAS-bla, beta-lactamase reporter, 18 h; 530 nm emission
# [10] = qHTS for identification of novel therapeutic agents for treatment of microphthalmiaassociated transcription factor (MiT) renal cell carcinoma (RCC) (AID 1963991); conditions: CellTiter-Glo, 48 h; for z-score: stronger effect = lower value
# Summary of the method: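 Curves over 11 concentrations were fitted to CellTiter-Glo luminescence, scaled between empty wells (0%) and DMSO (100%) viability. Cells were UOK109, UOK124 and UOK145 TFE3-fusion RCC lines at 500/well, exposed 48 hours at 37 C.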
# [11] = measured here: cell count channel max response
# [12] = measured here: lipid (BODIPY) channel AC50
# [13] = measured here: lipid channel max response
# [14] = measured here: 460 nm blue channel
# [15] = measured here: cell number channel AC50
# [16] = measured here: 530 nm viability channel
# [17] = measured here: PEO1 parental viability
# [18] = TFE3-RCC UOK109 viability, measured here: UOK109 Z-AUC
# [19] = TFE3-RCC viability, measured here: UOK124 Z-AUC
# [20] = TFE3-RCC viability, measured here: UOK145 Z-AUC
# Tags give direction and shape of the fitted curve.
structure (smiles),measurement,setting,value
CCCCCCc1ccc(O)cc1O,max response,[1]; [11],-28.6%
same,AC50,[1]; [12],"39.8 µM [falling, single point]"
same,max response,[1]; [13],-36.9%
same,AC50,[2],"39.8 µM [falling, single point]"
same,AC50,[3],"7.94 µM [falling, partial curve, poor fit]"
O=C(COc1ccc(Cl)cc1)N1CCN(Cc2ccc3c(c2)OCO3)CC1,max response,[1]; [11],17.9%
same,AC50,[1]; [12],"1 µM [rising, full curve, poor fit]"
same,max response,[1]; [13],34.6%
same,AC50,[4]; [14],"0.631 µM [falling, full curve, poor fit]"
same,AC50,[3],"0.501 µM [falling, full curve, poor fit]"
O=C1CC(c2ccccc2)Oc2ccccc21 (stereo not drawn),max response,[1]; [11],26.9%
same,AC50,[1]; [12],"0.282 µM [rising, partial curve, poor fit]"
same,max response,[1]; [13],39.2%
same,AC50,[5],"23 µM [falling, single point]"
CCCCCN(CCCCC)C(=O)C(CCC(=O)O)NC(=O)c1ccc(Cl)c(Cl)c1 (stereo not drawn),max response,[1]; [11],19.8%
same,AC50,[1]; [12],"14.1 µM [rising, partial curve, poor fit]"
same,max response,[1]; [13],32.1%
same,AC50,[3],"7.08 µM [falling, partial curve, poor fit]"
NS(=O)(=O)c1cc(C(=O)O)c(NCc2ccco2)cc1Cl,max response,[1]; [11],14.6%
same,AC50,[1]; [12],"39.8 µM [rising, single point]"
same,max response,[1]; [13],30.6%
same,AC50,[3],"6.31 µM [rising, single point]"
C=C1C(=O)O[C@@H]2[C@@H]1CC/C(C)=C\CC[C@@]1(C)O[C@H]21,max response,[1]; [11],-61.8%
same,AC50,[1]; [15],"14.1 µM [falling, partial curve, poor fit]"
same,AC50,[1]; [12],"14.1 µM [falling, partial curve]"
same,max response,[1]; [13],-95%
same,AC50,[4]; [14],"25.1 µM [falling, single point]"
same,AC50,[4]; [16],"28.2 µM [rising, single point]"
C[C@@]12C(=O)OC(=O)[C@]1(C)[C@H]1CC[C@@H]2O1,max response,[1]; [11],-26.3%
same,AC50,[1]; [12],"12.6 µM [falling, partial curve, poor fit]"
same,max response,[1]; [13],-42.9%
same,AC50,[4]; [14],"3.37 µM [falling, full curve]"
same,AC50,[6]; [17],"6.92 µM [falling, partial curve]"
same,AC50,[6]; measured here: PEO4 viability,"4.9 µM [falling, partial curve]"
CC(C)CC1NC(=O)C(CCCN)NC(=O)C(C(C)C)NC(=O)C2CCCN2C(=O)C(Cc2ccccc2)NC(=O)C(CC(C)C)NC(=O)C(CCCN)NC(=O)C(C(C)C)NC(=O)C2CCCN2C(=O)C(Cc2ccccc2)NC1=O (stereo not drawn) (cyclo(FPV[Orn]LFPV[Orn]L); configuration not given here),max response,[1]; [11],-101%
same,AC50,[1]; [15],"10 µM [falling, partial curve]"
same,AC50,[1]; [12],"0.0112 µM [falling, full curve]"
same,max response,[1]; [13],-103%
same,AC50,[4]; [14],"2.51 µM [falling, full curve]"
same,AC50,[4]; [16],"12.6 µM [rising, full curve]"
O=C(O)CN(CC(=O)O)Cc1cc2c(-c3ccccc3C(=O)O)c3cc(CN(CC(=O)O)CC(=O)O)c(=O)cc-3oc2cc1O,max response,[1]; [11],-102%
same,AC50,[1]; [15],"1.26 µM [falling, full curve]"
same,AC50,[1]; [12],"0.891 µM [falling, full curve]"
same,max response,[1]; [13],-99.5%
same,AC50,[4]; [16],"15.8 µM [rising, partial curve]"
COc1ccc2cc3[n+](cc2c1OC)CCc1cc2c(cc1-3)OCO2,max response,[1]; [11],11.4%
same,AC50,[1]; [12],"0.0251 µM [rising, full curve, poor fit]"
same,max response,[1]; [13],11.6%
same,max response,[7],29%
same,AC50,[8],"44.7 µM [rising, single point]"
same,max response,[9],24%
same,AC50,[4]; [14],"5.01 µM [falling, full curve, poor fit]"
same,AC50,[6]; [17],"0.616 µM [falling, full curve]"
same,AC50,[6]; measured here: PEO4 viability,"8.71 µM [falling, partial curve]"
same,z-score,[10]; [18],0.487
same,z-score,[10]; [19],0.109
same,AC50,"[10]; TFE3-RCC viability, measured here: UOK124 cell viability","16.6 µM [falling, partial curve, poor fit]"
same,z-score,[10]; [20],-0.216
CCCCOc1ccc(CC(=O)NO)cc1,max response,[1]; [11],27.3%
same,AC50,[1]; [12],"22.4 µM [rising, partial curve, poor fit]"
same,max response,[1]; [13],51.1%
same,AC50,[3],"10 µM [falling, partial curve, poor fit]"
same,AC50,[6]; [17],"0.616 µM [falling, partial curve, poor fit]"
same,AC50,[6]; measured here: PEO4 viability,"17.4 µM [falling, single point]"
same,z-score,[10]; [18],0.784
same,z-score,[10]; [19],0.23
same,z-score,[10]; [20],0.509
same,AC50,"[10]; TFE3-RCC viability, measured here: UOK145 cell viability","23.5 µM [falling, partial curve, poor fit]"
CC[C@]1([C@H]2O[C@@H]([C@@H]3O[C@](O)(CO)[C@@H](C)C[C@H]3C)C[C@H]2C)CC[C@@H]([C@]2(C)CC[C@@]3(C[C@@H](O)[C@@H](C)[C@@H]([C@H](C)[C@H](OC)[C@H](C)C(=O)O)O3)O2)O1,max response,[1]; [11],-26.6%
same,AC50,[1]; [15],"0.708 µM [falling, full curve, poor fit]"
same,AC50,[1]; [12],"5.62 µM [falling, partial curve, poor fit]"
same,max response,[1]; [13],-84.1%
same,AC50,[4]; [14],"0.501 µM [falling, full curve]"
